This is one part of the list.
These sequences were tested against T1, OsWOX13 (Oryza sativa, UniProt Q5QMM3 1-267) (assay: protein-binding microarray (RPBM); PBS, 2% BSA, 51.3 ng/ul salmon testes DNA, 50 uM zinc acetate, 200 nM TF, 25 C, 1 h; high values mean tight binding). Details: protein: recombinant; tags: N-terminal polyhistidine and DsRed monomer fusion (pET32a); label: CyDye5-dUTP incorporated in the synthesized complementary strand; 3' TTTTT single-stranded linker to array surface; dsDNA, one strand shown.
T1 sequence: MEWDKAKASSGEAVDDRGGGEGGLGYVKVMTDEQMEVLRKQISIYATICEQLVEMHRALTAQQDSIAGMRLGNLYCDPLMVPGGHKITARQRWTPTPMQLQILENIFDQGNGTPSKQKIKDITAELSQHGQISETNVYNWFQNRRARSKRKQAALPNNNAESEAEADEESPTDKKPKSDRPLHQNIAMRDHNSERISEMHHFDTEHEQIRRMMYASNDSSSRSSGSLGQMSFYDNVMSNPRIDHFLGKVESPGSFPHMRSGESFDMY
Method in brief: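 Per-feature fluorescence intensity (arbitrary units), read on an Axon 4000B scanner, is the binding signal. Transcription factors carrying an N-terminal polyhistidine tag and DsRed fusion were expressed in E. coli BL21-CodonPlus and purified on Ni–NTA. A custom Agilent array, made double-stranded by primer extension with Cy5-dUTP and blocked with 2% BSA, was incubated with 200 nM protein in PBS, 2% BSA, salmon testes DNA and 50 µM zinc acetate at 25 °C for 1 h and then washed.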

Sequence | binding signal
GGAAATTTTATAATTCGTAATCGTCACTTGTCCTTTAACCCGGAGTCACCTAGTGCAG | 6030 fluorescence intensity (a.u.)
TGATTTCATGATTGATAGCTACATATCTTAGTTTCACACCCGGAGTCACCTAGTGCAG | 40200 fluorescence intensity (a.u.)
GCCTCTAATGTCAATCAGTTTCGCTTTCCATCCTTCTCATCGGAGTCACCTAGTGCAG | 28200 fluorescence intensity (a.u.)
TACGATTATACTATAATTATATCTGTCAAATATTTAGGAGCGGAGTCACCTAGTGCAG | 25200 fluorescence intensity (a.u.)
GGTTACATAAATAAACATGATTTGTCAGTAATTCTGTGCCCGGAGTCACCTAGTGCAG | 20900 fluorescence intensity (a.u.)
CAGGACGTGCAATAATTATATACTTTCAGTCTTTCACCAGCGGAGTCACCTAGTGCAG | 3300 fluorescence intensity (a.u.)
TGATTAAATTGCTTTAACTTTTATTTAATTTGTAGAAAATCGGAGTCACCTAGTGCAG | 22500 fluorescence intensity (a.u.)
GACACAAATTTAGCCGATCAGACCGTCCGCTCGCATAACTCGGAGTCACCTAGTGCAG | 3300 fluorescence intensity (a.u.)
GCTAATTATATCGACAAGTTAAAACGAATTGAAAGATTAACGGAGTCACCTAGTGCAG | 9920 fluorescence intensity (a.u.)
GTAATGACTGATTAATGTAGGTGCTTGAAGAGCATGAGCTCGGAGTCACCTAGTGCAG | 22500 fluorescence intensity (a.u.)
TAAATTGCTATTATGACTTAATTATATGATTTATGCCATCCGGAGTCACCTAGTGCAG | 32300 fluorescence intensity (a.u.)
CGCATGTTAACTTGGAATGATCGGACTCCTAACTGCAGTTCGGAGTCACCTAGTGCAG | 4220 fluorescence intensity (a.u.)
AACAAATCAGCAATCAATCTCTGCAAGAATCCGGTACTCCCGGAGTCACCTAGTGCAG | 23200 fluorescence intensity (a.u.)
CCTGATTAATTGGGTCGTCGTTCCATTCCCAGCCGATCGACGGAGTCACCTAGTGCAG | 65200 fluorescence intensity (a.u.)
ATTTGACGAGACAAATTAAATCCCACAGAGTCAGCAGAGCCGGAGTCACCTAGTGCAG | 26700 fluorescence intensity (a.u.)
CAGAAAGTAATTGGAAATACAAATCCATGGTCCCTAAATGCGGAGTCACCTAGTGCAG | 24800 fluorescence intensity (a.u.)
GACATAGACAGTAGTGTTAATTGTAAGATGTAGTTTAGTTCGGAGTCACCTAGTGCAG | 6290 ± 781 fluorescence intensity (a.u.)
GATTACTGTTTAACCAATGATTTCACTTTGGATTACCATACGGAGTCACCTAGTGCAG | 5560 fluorescence intensity (a.u.)
TTATCAATTACATAGGGCTCAGGGTCTATTTATACCCGAGCGGAGTCACCTAGTGCAG | 13200 fluorescence intensity (a.u.)
TAAAATTGAAAGTGTCAACAAAGTGAAAGGACCCGAGATGCGGAGTCACCTAGTGCAG | 15800 fluorescence intensity (a.u.)
CACTAATTTTATTTCCGAATAAGACAAATATTAAAGTGTTCGGAGTCACCTAGTGCAG | 13100 fluorescence intensity (a.u.)
CTAGATTAAAATCCATTGACACACATTCAAATATTTCCGGCGGAGTCACCTAGTGCAG | 21600 fluorescence intensity (a.u.)
ATTTTAATGGATTTCTGCAAACTTTTAGTAGTAGTAGTATCGGAGTCACCTAGTGCAG | 4340 fluorescence intensity (a.u.)
GTGGCTAATTGCACGTGCAGTTTATCATCAAGTTTTACTTCGGAGTCACCTAGTGCAG | 15200 fluorescence intensity (a.u.)
TTCACTCTTCGCAATAATTGAATAGAAAGATAATGGGAAACGGAGTCACCTAGTGCAG | 6300 fluorescence intensity (a.u.)
AAGATAGATTAGGGAAAACTTTTGAATATGTTCTAAAGATCGGAGTCACCTAGTGCAG | 15400 fluorescence intensity (a.u.)
TCGGATTGGCCCAACGGATGATACTACCCAACTGTACGGACGGAGTCACCTAGTGCAG | 6980 fluorescence intensity (a.u.)

Sequence | binding signal
TTCTAATCAAGCTTTCTGGTTAATTTCTCTATGAATTTAACGGAGTCACCTAGTGCAG | 5250 fluorescence intensity (a.u.)
AAGATTGGGTATAAAATGATACATCTTAAACTGCAATGCACGGAGTCACCTAGTGCAG | 11000 fluorescence intensity (a.u.)
GGGATTGAGGCAGAAATTATGCCGTTCTCCAGGGAGCAATCGGAGTCACCTAGTGCAG | 9810 fluorescence intensity (a.u.)
CCTTGACACAGGCAAGATTGATGCTACAGTATAAATACGGCGGAGTCACCTAGTGCAG | 25700 fluorescence intensity (a.u.)
CTGTCTTGACAAAATAGATTGAGCTAAACACTCTGGATAACGGAGTCACCTAGTGCAG | 19400 fluorescence intensity (a.u.)
TCCTCAATTAATTGCTGATCCTAATGCAGAGTTTCAGGTGCGGAGTCACCTAGTGCAG | 35500 fluorescence intensity (a.u.)
TCTCGTAATCACATCCATATGAACACATATAAACACTCGTCGGAGTCACCTAGTGCAG | 4010 fluorescence intensity (a.u.)
GCTCAGAATATCATCTGATTAGCTGCCATCTAATCGATAACGGAGTCACCTAGTGCAG | 3940 fluorescence intensity (a.u.)
AACCTTGCAATTGATTTGACCTCATCGTTCTTGTCCCCGTCGGAGTCACCTAGTGCAG | 18100 fluorescence intensity (a.u.)
TAAAATTCGACAGTAATTTAAACTCACTCACTAGAAAGAGCGGAGTCACCTAGTGCAG | 4260 fluorescence intensity (a.u.)
CCACTGATAATTTAATTTGTCGATAATAAAATAGGTTTGACGGAGTCACCTAGTGCAG | 22000 fluorescence intensity (a.u.)
AGTATAACCACCGGGCCCCACGCGTCATCCTCCCGCGCGTCGGAGTCACCTAGTGCAG | 4020 fluorescence intensity (a.u.)
ATATCTAATTAGTTGCTGAGAGCATATATAATGCGATTCTCGGAGTCACCTAGTGCAG | 12900 fluorescence intensity (a.u.)
TTAACTGGAGTCGGTCAAATTGATCCATCCTTTGAACTTTCGGAGTCACCTAGTGCAG | 3450 fluorescence intensity (a.u.)
GCTGATTGGCACAATGCCACAATGACAGGACCTGCCCGTCCGGAGTCACCTAGTGCAG | 38000 fluorescence intensity (a.u.)
GTTCTAACTGAAACGATGATGACTGAGCAGTAGCAGACTACGGAGTCACCTAGTGCAG | 7790 fluorescence intensity (a.u.)
GATAAATTTAGTGTTAAATCTGTAGTTTTGTAATAGTTTACGGAGTCACCTAGTGCAG | 6120 fluorescence intensity (a.u.)
TGGAGTTGAAACATTTTGATTGGACTTTAACTGTAAGAGGCGGAGTCACCTAGTGCAG | 12800 fluorescence intensity (a.u.)
CTTCATCAATCATAAAATAATTAAACCTAACAGGCGATCTCGGAGTCACCTAGTGCAG | 35500 fluorescence intensity (a.u.)
TTATAAGTTAATTTTATGGATTAGCTCCTTACACCCTTAACGGAGTCACCTAGTGCAG | 10000 fluorescence intensity (a.u.)
ATGTGACTGAAAATTTGTGTGTATATGACAGGTTGATGCGCGGAGTCACCTAGTGCAG | 22800 fluorescence intensity (a.u.)
TTTTGATTAGAACTGTATGTCCAGCTTGTGATGTACCTAACGGAGTCACCTAGTGCAG | 42100 fluorescence intensity (a.u.)
AAATTATATTAATTTCCACTGTGTAGCGCATCCTTATCGACGGAGTCACCTAGTGCAG | 4130 fluorescence intensity (a.u.)
GGCTGGTGGAATTAATTATAGTATAATAAGGAAAAGCAGACGGAGTCACCTAGTGCAG | 5510 fluorescence intensity (a.u.)
TACTTGATGAAACATTCAAATAATATGATGTGCAACATTCCGGAGTCACCTAGTGCAG | 5150 fluorescence intensity (a.u.)
TCCACCGCGACATGTGATTGGAGGTAAGAGCATGTGAACCCGGAGTCACCTAGTGCAG | 5650 fluorescence intensity (a.u.)
TTTTAATTACTTATTTAATCATATGCTAATAGCTCGTCCTCGGAGTCACCTAGTGCAG | 39300 fluorescence intensity (a.u.)

Source: publication PMC7819943, “Rice protein-binding microarrays: a tool to detect cis-acting elements near promoter regions in rice”
